Measurements taken from the supplement of paper PMC8728848.
The list shows a part of the results.

Assays:
Assay in all cases: glycan array binding signal (z-score within array); higher = stronger binding
Details in all cases: glycan notation: IUPAC condensed, linker removed
Gal(a1-6)Glc = target: Gal(a1-6)Glc
Outline: (§1)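 Negative Z-scores can be read as non-binding. The Z-score is calculated within each array and then averaged across arrays of one protein sequence at different concentrations or buffers and across linkers. Arrays, 3228 in all, were curated from the Consortium for Functional Glycomics database and kept only where the protein sequence was available.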

Gal(b1-2)Gal = target: Gal(b1-2)Gal
Outline: as §1

Gal(b1-3)Gal = target: Gal(b1-3)Gal
Outline: as §1

Gal(b1-3)Gal(b1-4)GlcNAc = target: Gal(b1-3)Gal(b1-4)GlcNAc
Outline: as §1

Gal(b1-3)GalNAc = target: Gal(b1-3)GalNAc
Outline: as §1

[1] = target: Gal(b1-3)GalNAc(a1-3)[Fuc(a1-2)]Gal(b1-4)Glc
Outline: as §1

[2] = target: Gal(b1-3)GalNAc(a1-3)[Fuc(a1-2)]Gal(b1-4)GlcNAc
Outline: as §1

Gal(b1-3)GalNAc(b1-3)Gal = target: Gal(b1-3)GalNAc(b1-3)Gal
Outline: as §1

[3] = target: Gal(b1-3)GalNAc(b1-3)Gal(a1-4)Gal(b1-4)Glc
Outline: as §1

[4] = target: Gal(b1-3)GalNAc(b1-4)Gal(b1-4)Glc
Outline: as §1

[5] = target: Gal(b1-3)GalNAc(b1-4)[Neu5Ac(a2-3)]Gal(b1-4)Glc
Outline: as §1

Gal(b1-3)GlcNAc = target: Gal(b1-3)GlcNAc
Outline: as §1

[6] = target: Gal(b1-3)GlcNAc(a1-3)Gal(b1-4)GlcNAc
Outline: as §1

[7] = target: Gal(b1-3)GlcNAc(a1-6)Gal(b1-4)GlcNAc
Outline: as §1

Gal(b1-3)GlcNAc(b1-2)Man = target: Gal(b1-3)GlcNAc(b1-2)Man
Outline: as §1

[8] = target: Gal(b1-3)GlcNAc(b1-2)Man(a1-3)[Gal(b1-3)GlcNAc(b1-2)Man(a1-6)]Man(b1-4)GlcNAc(b1-4)GlcNAc
Outline: as §1

[9] = target: Gal(b1-3)GlcNAc(b1-2)Man(a1-3)[Gal(b1-3)GlcNAc(b1-2)Man(a1-6)]Man(b1-4)GlcNAc(b1-4)[Fuc(a1-6)]GlcNAc
Outline: as §1

[10] = target: Gal(b1-3)GlcNAc(b1-2)Man(a1-3)[GlcNAc(b1-4)][Gal(b1-3)GlcNAc(b1-2)Man(a1-6)]Man(b1-4)GlcNAc(b1-4)GlcNAc
Outline: as §1

[11] = target: Gal(b1-3)GlcNAc(b1-2)[Gal(b1-3)GlcNAc(b1-6)]Man(a1-6)[Gal(b1-3)GlcNAc(b1-2)Man(a1-3)]Man(b1-4)GlcNAc(b1-4)GlcNAc
Outline: as §1

[12] = target: Gal(b1-3)GlcNAc(b1-3)Gal(b1-3)GlcNAc
Outline: as §1

[13] = target: Gal(b1-3)GlcNAc(b1-3)Gal(b1-4)Glc
Outline: as §1

[14] = target: Gal(b1-3)GlcNAc(b1-3)Gal(b1-4)GlcNAc
Outline: as §1

[15] = target: Gal(b1-3)GlcNAc(b1-3)Gal(b1-4)GlcNAc(b1-2)Man(a1-3)[Gal(b1-3)GlcNAc(b1-3)Gal(b1-4)GlcNAc(b1-2)Man(a1-6)]Man(b1-4)GlcNAc(b1-4)GlcNAc
Outline: as §1

[16] = target: Gal(b1-3)GlcNAc(b1-3)Gal(b1-4)GlcNAc(b1-2)[Gal(b1-3)GlcNAc(b1-3)Gal(b1-4)GlcNAc(b1-6)]Man(a1-6)[Gal(b1-3)GlcNAc(b1-3)Gal(b1-4)GlcNAc(b1-2)Man(a1-3)]Man(b1-4)GlcNAc(b1-4)[Fuc(a1-6)]GlcNAc
Outline: as §1

[17] = target: Gal(b1-3)GlcNAc(b1-3)Gal(b1-4)GlcNAc(b1-3)Gal(b1-4)GlcNAc(b1-2)[Gal(b1-3)GlcNAc(b1-3)Gal(b1-4)GlcNAc(b1-3)Gal(b1-4)GlcNAc(b1-6)]Man(a1-6)[Gal(b1-3)GlcNAc(b1-3)Gal(b1-4)GlcNAc(b1-3)Gal(b1-4)GlcNAc(b1-2)Man(a1-3)]Man(b1-4)GlcNAc(b1-4)[Fuc(a1-6)]GlcNAc
Outline: as §1

[18] = target: Gal(b1-3)GlcNAc(b1-3)Gal(b1-4)GlcNAc(b1-6)[Gal(b1-3)GlcNAc(b1-3)]Gal(b1-4)Glc
Outline: as §1

[19] = target: Gal(b1-3)GlcNAc(b1-3)Gal(b1-4)[Fuc(a1-3)]GlcNAc
Outline: as §1

[20] = target: Gal(b1-3)GlcNAc(b1-3)Gal(b1-4)[Fuc(a1-3)]GlcNAc(b1-6)[Gal(b1-3)GlcNAc(b1-3)]Gal(b1-4)Glc
Outline: as §1

[21] = target: Gal(b1-3)GlcNAc(b1-3)GalNAc
Outline: as §1

[22] = target: Gal(b1-3)GlcNAc(b1-6)Gal(b1-4)GlcNAc
Outline: as §1

[23] = target: Gal(b1-3)GlcNAc(b1-6)GalNAc
Outline: as §1

[24] = target: Gal(b1-3)GlcNAc(b1-6)[Gal(b1-3)]GalNAc
Outline: as §1

Gal(b1-3)GlcNAc6S = target: Gal(b1-3)GlcNAc6S
Outline: as §1

[25] = target: Gal(b1-3)[Fuc(a1-4)]GlcNAc
Outline: as §1

[26] = target: Gal(b1-3)[Fuc(a1-4)]GlcNAc(b1-2)Man
Outline: as §1

[27] = target: Gal(b1-3)[Fuc(a1-4)]GlcNAc(b1-2)Man(a1-3)[Gal(b1-3)[Fuc(a1-4)]GlcNAc(b1-2)Man(a1-6)]Man(b1-4)GlcNAc(b1-4)[Fuc(a1-6)]GlcNAc
Outline: as §1

[28] = target: Gal(b1-3)[Fuc(a1-4)]GlcNAc(b1-3)Gal(b1-3)[Fuc(a1-4)]GlcNAc
Outline: as §1

[29] = target: Gal(b1-3)[Fuc(a1-4)]GlcNAc(b1-3)Gal(b1-4)[Fuc(a1-3)]GlcNAc
Outline: as §1

[30] = target: Gal(b1-3)[Fuc(a1-4)]GlcNAc(b1-6)GalNAc
Outline: as §1

[31] = target: Gal(b1-3)[GlcNAc(b1-6)]GalNAc
Outline: as §1

[32] = target: Gal(b1-3)[Neu5Ac(a2-6)]GalNAc
Outline: as §1

[33] = target: Gal(b1-3)[Neu5Ac(a2-6)]GlcNAc(b1-4)Gal(b1-4)Glc
Outline: as §1

[34] = target: Gal(b1-3)[Neu5Ac(b2-6)]GalNAc
Outline: as §1

Gal(b1-4)Gal = target: Gal(b1-4)Gal
Outline: as §1

[35] = target: Gal(b1-4)GalNAc(a1-3)[Fuc(a1-2)]Gal(b1-4)GlcNAc
Outline: as §1

B1: CGL (Crenomytilus grayanus), H2FH31 (protein)
chain: MTTFLIKHKASGKFLHPYGGSSNPANNTKLVLHSDIHERMYFQFDVVDERWGYIKHVASGKIVHPYGGQANPPNETNMVLHQDRHDRALFAMDFFNDNIMHKGGKYIHPKGGSPNPPNNTETVIHGDKHAAMEFIFVSPKNKDKRVLVYA
For B1, the “glycan array binding signal (z-score)” value (Gal(a1-6)Glc) was -0.041, the “glycan array binding signal (z-score)” value (Gal(b1-2)Gal) was 0.358 and the “glycan array binding signal (z-score)” value (Gal(b1-3)Gal) was -0.355. For the same binder, the “glycan array binding signal (z-score)” value (Gal(b1-3)Gal(b1-4)GlcNAc) was -0.077, the “glycan array binding signal (z-score)” value (Gal(b1-3)GalNAc) was -0.397 and the “glycan array binding signal (z-score)” value [1] was -0.352. For the same binder, the “glycan array binding signal (z-score)” value [2] was -0.341, the “glycan array binding signal (z-score)” value (Gal(b1-3)GalNAc(b1-3)Gal) was -0.324 and the “glycan array binding signal (z-score)” value [3] was -0.269. The “glycan array binding signal (z-score)” value [4] was -0.282, the “glycan array binding signal (z-score)” value [5] was -0.242 and the “glycan array binding signal (z-score)” value (Gal(b1-3)GlcNAc) was 0.242. The “glycan array binding signal (z-score)” value [6] was 0.396, the “glycan array binding signal (z-score)” value [7] was 0.803 and the “glycan array binding signal (z-score)” value (Gal(b1-3)GlcNAc(b1-2)Man) was 0.117. For the same binder, the “glycan array binding signal (z-score)” value [8] was 1.39, the “glycan array binding signal (z-score)” value [9] was 0.52 and the “glycan array binding signal (z-score)” value [10] was 0.739. For the same binder, the “glycan array binding signal (z-score)” value [11] was 1.87, the “glycan array binding signal (z-score)” value [12] was 0.665 and the “glycan array binding signal (z-score)” value [13] was 0.248. The “glycan array binding signal (z-score)” value [14] was 0.369, the “glycan array binding signal (z-score)” value [15] was 2 and the “glycan array binding signal (z-score)” value [16] was 1.8. For the same binder, the “glycan array binding signal (z-score)” value [17] was 2.2, the “glycan array binding signal (z-score)” value [18] was 2.44 and the “glycan array binding signal (z-score)” value [19] was 0.29. For the same binder, the “glycan array binding signal (z-score)” value [20] was 0.813, the “glycan array binding signal (z-score)” value [21] was -0.089 and the “glycan array binding signal (z-score)” value [22] was 0.949. For the same binder, the “glycan array binding signal (z-score)” value [23] was -0.031, the “glycan array binding signal (z-score)” value [24] was 0.396 and the “glycan array binding signal (z-score)” value (Gal(b1-3)GlcNAc6S) was 0.231. The “glycan array binding signal (z-score)” value [25] was -0.359, the “glycan array binding signal (z-score)” value [26] was -0.336 and the “glycan array binding signal (z-score)” value [27] was -0.341. The “glycan array binding signal (z-score)” value [28] was -0.406, the “glycan array binding signal (z-score)” value [29] was -0.381 and the “glycan array binding signal (z-score)” value [30] was -0.408. The “glycan array binding signal (z-score)” value [31] was -0.34, the “glycan array binding signal (z-score)” value [32] was -0.398 and the “glycan array binding signal (z-score)” value [33] was -0.148. For the same binder, the “glycan array binding signal (z-score)” value [34] was -0.38, the “glycan array binding signal (z-score)” value (Gal(b1-4)Gal) was -0.367 and the “glycan array binding signal (z-score)” value [35] was 0.737.
